Values marked as one replicate rest on one cluster of the flow cell; about a third of the high ones do not repeat.
These sequences were tested on ATP (assay: switch fluorescence ratio, 500 uM ATP over buffer (Cy3 cluster intensity, sum of 5 cycles each) (fold (ratio)); higher = stronger signal-on switching upon ATP binding; sequences stand for … in TCGTCGGCAGCGTCAGATGTGTATAAGAGACAGTTTTTTTTTTTTTTTTTTTTTTTTT…TC). Conditions: aptamer strand: ATP DNA aptamer (quencher-CACCTGGGGGAGTATTGCGGAGGAAGG + anchor), 100 nM annealed; ATP concentration: 500 uM; one replicate.
In short: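 After annealing to 100 nM quencher-labelled ATP aptamer, Cy3-labelled switching-strand clusters on a modified Illumina MiSeq flow-cell were imaged in selection buffer. A second image followed after 15 min with 500 uM ATP at 22 °C, and five such buffer/ATP cycles were done, each separated by NaOH stripping and re-annealing. The fluorescence ratio, averaged per switch-domain sequence, is summed target-cycle over summed buffer-cycle Cy3 intensity per cluster, with clusters outside 100-1000 RFU excluded.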
Sequence AACGCAGGTC has a switch fluorescence ratio of 1.24.
In the case of AACGCAGTTA, the switch fluorescence ratio is reported as 0.972.
Sequence AACGCCTAGG has a switch fluorescence ratio of 1.04.
For AACGCGTAGC, the switch fluorescence ratio was 1.02.
AACGCGTCTT gave a switch fluorescence ratio of 1.05.
Work on AACGCTTCAT yielded a switch fluorescence ratio of 1.06.
AACGCTTCTT was tested, and the switch fluorescence ratio was 1.01.
Sequence AACGGAACGC has a switch fluorescence ratio of 1.1.
Sequence AACGGAGGA has a switch fluorescence ratio of 0.974.
In the case of AACGGAGGAT, the switch fluorescence ratio is reported as 1.15.
In the case of AACGGAGTAC, the switch fluorescence ratio is reported as 1.16.
AACGGCAAAT was tested, and the switch fluorescence ratio was 1.06.
With AACGGCAGTC the switch fluorescence ratio was 1.08.
Work on AACGGCTTTT yielded a switch fluorescence ratio of 0.992.
For AACGGTACG, the switch fluorescence ratio was 0.996.
AACGGTCCCT gave a switch fluorescence ratio of 1.03.
Work on AACGTAACTT yielded a switch fluorescence ratio of 1.12.
AACGTAATCT showed a switch fluorescence ratio of 1.28.
AACGTATATC was tested, and the switch fluorescence ratio was 1.21.
For AACGTCAACG, the switch fluorescence ratio was 1.08.
Work on AACGTCATCG yielded a switch fluorescence ratio of 1.02.
For AACGTCGAGA, the switch fluorescence ratio was 0.986.
AACGTGGATG was tested, and the switch fluorescence ratio was 1.04.
Sequence AACGTGGTCG has a switch fluorescence ratio of 1.02.
Work on AACGTTCAGC yielded a switch fluorescence ratio of 1.04.
With AACGTTCTTG the switch fluorescence ratio was 1.02.
AACGTTTGGA showed a switch fluorescence ratio of 1.01.
AACTAAATTA was tested, and the switch fluorescence ratio was 1.03.
AACTACCGAG showed a switch fluorescence ratio of 1.11.
Sequence AACTACGCCG has a switch fluorescence ratio of 1.12.
With AACTAGAACA the switch fluorescence ratio was 1.01.
With AACTAGACGC the switch fluorescence ratio was 1.19.
In the case of AACTAGAGCT, the switch fluorescence ratio is reported as 0.984.
AACTAGGAAG showed a switch fluorescence ratio of 0.96.
AACTATAATC was tested, and the switch fluorescence ratio was 1.02.
AACTATGCA showed a switch fluorescence ratio of 1.
AACTATGGGG gave a switch fluorescence ratio of 0.932.
In the case of AACTATTTAT, the switch fluorescence ratio is reported as 1.03.
AACTCGCCTG showed a switch fluorescence ratio of 1.05.
In the case of AACTCTGGGC, the switch fluorescence ratio is reported as 1.02.
With AACTCTGTAC the switch fluorescence ratio was 1.16.
AACTCTTCAG was tested, and the switch fluorescence ratio was 0.97.
For AACTCTTGAT, the switch fluorescence ratio was 0.968.
AACTGAACC showed a switch fluorescence ratio of 1.24.
Work on AACTGACTTT yielded a switch fluorescence ratio of 1.06.
AACTGCACTG gave a switch fluorescence ratio of 1.32.
AACTGCGGCG was tested, and the switch fluorescence ratio was 0.992.
For AACTGGAAAC, the switch fluorescence ratio was 1.14.
AACTGGCTGA gave a switch fluorescence ratio of 1.
In the case of AACTGGTATG, the switch fluorescence ratio is reported as 0.99.
With AACTGGTTCG the switch fluorescence ratio was 1.02.
For AACTGTGCCT, the switch fluorescence ratio was 1.08.
Sequence AACTGTTCCG has a switch fluorescence ratio of 1.02.
AACTGTTGGA gave a switch fluorescence ratio of 0.976.
Work on AACTTACAA yielded a switch fluorescence ratio of 1.16.
AACTTCCA was tested, and the switch fluorescence ratio was 1.07.
In the case of AACTTGTTCC, the switch fluorescence ratio is reported as 1.06.
AACTTGTTGG showed a switch fluorescence ratio of 1.01.
In the case of AACTTTCGGT, the switch fluorescence ratio is reported as 0.97.
In the case of AAGAAAAGGC, the switch fluorescence ratio is reported as 1.14.
AAGAAACGAG showed a switch fluorescence ratio of 1.02.
For AAGAAAGAAT, the switch fluorescence ratio was 0.96.
With AAGAAAGAGC the switch fluorescence ratio was 0.967.
Work on AAGAAAGGG yielded a switch fluorescence ratio of 0.973.
For AAGAAATTTA, the switch fluorescence ratio was 0.99.
AAGAACTA gave a switch fluorescence ratio of 1.04.
In the case of AAGAAGGACC, the switch fluorescence ratio is reported as 1.05.
AAGAAGTGGA was tested, and the switch fluorescence ratio was 0.965.
Work on AAGAATTATG yielded a switch fluorescence ratio of 1.05.
For AAGAATTTCT, the switch fluorescence ratio was 0.955.
With AAGACAGAAC the switch fluorescence ratio was 1.07.
AAGACCAGAT gave a switch fluorescence ratio of 0.961.
In the case of AAGACCATTC, the switch fluorescence ratio is reported as 1.05.
AAGACGAAGG gave a switch fluorescence ratio of 0.995.
For AAGACGAGTA, the switch fluorescence ratio was 0.876.
Work on AAGACGGCCC yielded a switch fluorescence ratio of 0.988.
Work on AAGACGTTGC yielded a switch fluorescence ratio of 1.02.
Sequence AAGACTAACT has a switch fluorescence ratio of 1.1.
Sequence AAGACTCTAC has a switch fluorescence ratio of 1.23.
AAGAGAACAA gave a switch fluorescence ratio of 1.02.
AAGAGATGGC was tested, and the switch fluorescence ratio was 1.19.
AAGAGCATAC gave a switch fluorescence ratio of 2.26.
For AAGAGGCACT, the switch fluorescence ratio was 1.
Work on AAGAGGCATT yielded a switch fluorescence ratio of 0.945.
For AAGAGGCCAC, the switch fluorescence ratio was 0.924.
AAGAGTCGAA gave a switch fluorescence ratio of 0.97.
AAGAGTTACA showed a switch fluorescence ratio of 1.02.
With AAGATACAAG the switch fluorescence ratio was 1.06.
Sequence AAGATCGTC has a switch fluorescence ratio of 1.01.
AAGATGCGTT was tested, and the switch fluorescence ratio was 0.987.
Sequence AAGATGTGC has a switch fluorescence ratio of 0.933.
AAGATGTTAT gave a switch fluorescence ratio of 1.
For AAGATTGTCA, the switch fluorescence ratio was 0.965.
For AAGATTGTG, the switch fluorescence ratio was 0.974.
In the case of AAGCAAAACG, the switch fluorescence ratio is reported as 1.06.
Sequence AAGCAAATTC has a switch fluorescence ratio of 1.84.
AAGCACCTGA was tested, and the switch fluorescence ratio was 1.14.
AAGCAGATGT was tested, and the switch fluorescence ratio was 0.95.
Sequence AAGCAGTCTT has a switch fluorescence ratio of 0.998.
AAGCATGAGC gave a switch fluorescence ratio of 1.03.
For AAGCATTGTC, the switch fluorescence ratio was 0.977.
With AAGCCATTAT the switch fluorescence ratio was 1.06.
Work on AAGCCCCGGG yielded a switch fluorescence ratio of 1.05.
For AAGCCCGAAT, the switch fluorescence ratio was 1.
With AAGCGACGAG the switch fluorescence ratio was 0.976.
In the case of AAGCGCTTAG, the switch fluorescence ratio is reported as 0.972.
With AAGCGGGCTG the switch fluorescence ratio was 0.982.
Work on AAGCGGTGCT yielded a switch fluorescence ratio of 1.02.
With AAGCGGTTAG the switch fluorescence ratio was 1.
AAGCTATTTT gave a switch fluorescence ratio of 1.
For AAGCTCAGAA, the switch fluorescence ratio was 0.953.
Work on AAGCTCCGAA yielded a switch fluorescence ratio of 1.28.
With AAGCTGAAGG the switch fluorescence ratio was 1.06.
With AAGCTGAATA the switch fluorescence ratio was 1.02.
Sequence AAGCTTAGCA has a switch fluorescence ratio of 0.988.
With AAGGAAAAT the switch fluorescence ratio was 1.04.
With AAGGAACACG the switch fluorescence ratio was 1.01.
Sequence AAGGAACGCG has a switch fluorescence ratio of 1.02.
In the case of AAGGAATCAG, the switch fluorescence ratio is reported as 1.06.
AAGGACCCTC was tested, and the switch fluorescence ratio was 1.03.
Work on AAGGACCTTT yielded a switch fluorescence ratio of 0.983.
With AAGGACTTGT the switch fluorescence ratio was 0.972.
Work on AAGGAGCATT yielded a switch fluorescence ratio of 1.03.
In the case of AAGGAGGTC, the switch fluorescence ratio is reported as 1.03.
AAGGATACTC gave a switch fluorescence ratio of 1.12.
With AAGGATCACG the switch fluorescence ratio was 1.05.
AAGGATGGC was tested, and the switch fluorescence ratio was 1.02.
AAGGCAATTG showed a switch fluorescence ratio of 1.03.
For AAGGCACACG, the switch fluorescence ratio was 1.02.
AAGGCCACCA showed a switch fluorescence ratio of 1.23.
For AAGGCCGCTA, the switch fluorescence ratio was 1.02.
AAGGCGATGG gave a switch fluorescence ratio of 1.06.
AAGGCGGGCG gave a switch fluorescence ratio of 0.995.
AAGGCTACC was tested, and the switch fluorescence ratio was 1.04.
With AAGGGAAGAT the switch fluorescence ratio was 0.997.
Sequence AAGGGAATCG has a switch fluorescence ratio of 1.03.
AAGGGACTTA gave a switch fluorescence ratio of 1.01.
Sequence AAGGGCCGTA has a switch fluorescence ratio of 0.956.
AAGGGCGATC was tested, and the switch fluorescence ratio was 1.02.
In the case of AAGGGCGGCA, the switch fluorescence ratio is reported as 0.997.
With AAGGGCGTCC the switch fluorescence ratio was 0.96.
With AAGGGGTCCC the switch fluorescence ratio was 0.932.
Sequence AAGGGTGAAT has a switch fluorescence ratio of 0.989.
In the case of AAGGGTGGTG, the switch fluorescence ratio is reported as 1.04.
With AAGGGTTCGT the switch fluorescence ratio was 0.98.
With AAGGTAAACT the switch fluorescence ratio was 0.977.
For AAGGTAATGC, the switch fluorescence ratio was 1.24.
AAGGTAT gave a switch fluorescence ratio of 0.988.
Sequence AAGGTATCAC has a switch fluorescence ratio of 1.01.
For AAGGTATGGT, the switch fluorescence ratio was 0.994.
In the case of AAGGTCATGG, the switch fluorescence ratio is reported as 1.01.
With AAGGTCCCGT the switch fluorescence ratio was 1.03.
With AAGGTCCTGG the switch fluorescence ratio was 0.967.
AAGGTCGGA was tested, and the switch fluorescence ratio was 0.957.
Work on AAGGTCTTGA yielded a switch fluorescence ratio of 1.02.
In the case of AAGGTTAAAC, the switch fluorescence ratio is reported as 0.951.
With AAGTAAAACC the switch fluorescence ratio was 1.04.
In the case of AAGTAATATC, the switch fluorescence ratio is reported as 1.32.
AAGTACCCCC showed a switch fluorescence ratio of 1.49.
Sequence AAGTACGTGG has a switch fluorescence ratio of 1.15.
With AAGTAGACCC the switch fluorescence ratio was 0.972.
Sequence AAGTAGCGGG has a switch fluorescence ratio of 1.03.
For AAGTAGTTAA, the switch fluorescence ratio was 1.05.
AAGTATAAAA was tested, and the switch fluorescence ratio was 0.969.
With AAGTATGTAC the switch fluorescence ratio was 1.02.
In the case of AAGTATTAGG, the switch fluorescence ratio is reported as 0.99.
AAGTCAACGA showed a switch fluorescence ratio of 0.967.
AAGTCCACAG was tested, and the switch fluorescence ratio was 1.11.
With AAGTCCCCCG the switch fluorescence ratio was 1.11.
In the case of AAGTCGCTTA, the switch fluorescence ratio is reported as 1.02.
Work on AAGTCTACGT yielded a switch fluorescence ratio of 1.03.
For AAGTCTACTG, the switch fluorescence ratio was 1.03.
AAGTCTGCTA showed a switch fluorescence ratio of 1.01.
In the case of AAGTGACGTT, the switch fluorescence ratio is reported as 1.03.
Work on AAGTGACTCC yielded a switch fluorescence ratio of 1.25.
For AAGTGATTGC, the switch fluorescence ratio was 1.01.
AAGTGCCATC was tested, and the switch fluorescence ratio was 1.02.
AAGTGCTGGT was tested, and the switch fluorescence ratio was 0.975.
For AAGTGTATAC, the switch fluorescence ratio was 1.04.
AAGTGTCTA gave a switch fluorescence ratio of 0.969.
Work on AAGTGTGAA yielded a switch fluorescence ratio of 0.971.
For AAGTGTGC, the switch fluorescence ratio was 0.883.
Work on AAGTGTTACA yielded a switch fluorescence ratio of 1.
Work on AAGTGTTCAC yielded a switch fluorescence ratio of 1.05.
AAGTTATCCA showed a switch fluorescence ratio of 1.01.
In the case of AAGTTCAAGT, the switch fluorescence ratio is reported as 0.964.
Sequence AAGTTCTAAT has a switch fluorescence ratio of 1.03.
Work on AAGTTCTTCC yielded a switch fluorescence ratio of 1.85.
In the case of AAGTTGGAG, the switch fluorescence ratio is reported as 1.
AAGTTGGTC was tested, and the switch fluorescence ratio was 0.971.
AAGTTTAGAT showed a switch fluorescence ratio of 1.01.
AAGTTTAGGC showed a switch fluorescence ratio of 1.05.
AAGTTTATAC was tested, and the switch fluorescence ratio was 1.04.
With AAGTTTCTTG the switch fluorescence ratio was 0.955.
AATAAATTAC gave a switch fluorescence ratio of 0.992.
In the case of AATAACATGT, the switch fluorescence ratio is reported as 0.959.
Sequence AATAACTGAT has a switch fluorescence ratio of 0.999.
For AATAACTTAT, the switch fluorescence ratio was 1.06.
For AATAAGCGG, the switch fluorescence ratio was 0.994.
AATAATGCA gave a switch fluorescence ratio of 0.998.
AATACACAGC gave a switch fluorescence ratio of 1.23.

— the supplement of paper PMC10126150
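Also: ATP exposure 15 min at 22 °C before imaging.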
